Reference: patent US20240392007A1 (SHENGHE CHINA BIOPHARMACEUTICAL, published 2024)

Molecular target: T1, IL-10 receptor human IL10RA-his (purchased from Beijing Yiqiao Shenzhou Technology Co., Ltd.) (human, UniProt Q13651 22-235)
T1 construct: Bought protein coated on the ELISA plate; also called IL10RA protein; IL-10 receptor proteins; not shown: his tag
T1 sequence (looked up): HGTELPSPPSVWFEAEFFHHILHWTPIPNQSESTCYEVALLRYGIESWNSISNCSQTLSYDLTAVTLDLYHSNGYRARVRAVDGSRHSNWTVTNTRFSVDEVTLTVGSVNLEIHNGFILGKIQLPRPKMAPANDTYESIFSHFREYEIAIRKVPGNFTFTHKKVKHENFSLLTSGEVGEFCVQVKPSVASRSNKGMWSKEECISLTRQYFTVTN
Assay: ELISA, human IL10RA-his coated on plate, detection with HRP goat anti-human IgG Fc
Description: The IL-10 receptor human IL10RA-his (purchased from Beijing Yiqiao Shenzhou Technology Co., Ltd.) was diluted to 0.5 μg/mL with the PBS buffer of pH 7.4 and coated into 96-well ELISA plates at 100 μL/well and allowed to stand overnight at 4° C. The plate was blocked with 1% BSA blocking solution for 1 hour, and then washed 3 times with PBST. The purified antibody was diluted to 10 μg/mL with 0.5% BSA sample diluent as the starting concentration and 3-fold diluted in 11 gradients, and set up a negative control with irrelevant antibodies and a positive control (IL-10), and it was added 100 μL per well, incubated for 1 h at 37° C. The plate was washed 3 times with PBST and HRP-labelled goat anti-human IgG Fc (Jackson Cat: 109-035-098) was diluted according to 1:10000 with sample diluent and it was added 100 μL per well and incubated for 1 h at room temperature. After washing the plate 4 times with PBST, it was added 100 μL of TMB substrate per well and incubated at room temperature without light for 10 min. […]
The absorbance value of each well in the 96-well plate was measured on a multifunctional enzyme standard at a wavelength of 450 nm and a reference wavelength of 570 nm, absorbance value (OD) per well=OD450 nm-OD570 nm. The concentration of the antibodies were logarithmically plotted as the horizontal coordinate and the measured absorbance value per well as the vertical coordinate. […]

- binding result: binds
B1: constructed antibody (heterodimeric protein: B7H3-targeting light chain and first heavy chain, with a second heavy chain of Fc fused to IL-10) (other)
heavy: QVQLQQSGAELVKPGASVKLSCKASGYTFTNYDINWVRQRPEQGLEWIGWIFPGDGSTQYNEKFKGKATLTTDTSSSTAYMQLSRLTSEDSAVYFCARQTTATWFAYWGQGTLVTVSAASTKGPSVFPLAPSSKSTSGGTAALGCLVKDYFPEPVTVSWNSGALTSGVHTFPAVLQSSGLYSLSSVVTVPSSSLGTQTYICNVNHKPSNTKVDKKV[sequence of human IgG1 Fc with D270N T366W (EU numbers) omitted]
light: DIVMTQSPATLSVTPGDRVTLSCRASQSISDYLYWYQQKSHESPRLLIKYASQSISGIPSRFSGSGSGSDFTLSINSVEPEDVGVYYCQNGHSFPLTFGAGTKLELKRTVAAPSVFIFPPSDEQLKSGTASVVCLLNNFYPREAKVQWKVDNALQSGNSQESVTEQDSKDSTYSLSSTLTLSKADYEKHKVYACEVTHQGLSSPVTKSFNRGEC
chain: SPGQGTQSENSCTHFPGNLPNMLRDLRDAFSRVKTFFQMKDQLDNLLLKESLLEDFKGYLGCQALSEMIQFYLEEVMPQAENQDPDIKAHVNSLGENLKTLRLRLRRCHRFLPCENKSKAVEQVKNAFNKLQEKGIYKAMSEFDIFINYIEAYMTMKIRNGGGGSGGGGSGGGGSSPGQGTQSENSCTHFPGNLPNMLRDLRDAFSRVKTFFQMKDQLDNLLLKESLLEDFKGYLGCQALSEMIQFYLEEVMPQAENQDPDIKAHVNSLGENLKTLRLRLRRCHRFLPCENKSKAVEQVKNAFNKLQEKGIYKAMSEFDIFINYIEAYMTMKIRNGGGGS[sequence of human IgG1 Fc with D270N Y407A (EU numbers) omitted]
notes: Three chains co-expressed in ExpiCHO and purified by Protein A and an ionic column; A signal peptide was added at the nucleotide level; also called constructed antibodies; target antibody
